Assay results reported in PubChem BioAssay AID1345083 (National Center for Advancing Translational Sciences (NCATS), 2018).
In all, about 94,000 compounds went through this assay and about 6,200 (6.6%) were called active. The shares of active, inactive and inconclusive entries below differ from those in the screen. Calls follow the shape of the dose curve; as a rule, active = well fitted inhibition curve with a large enough effect; inconclusive = small, poorly fitted or top-dose-only effect; inactive = flat fitted curve, though single readings scatter. Potencies of inconclusive entries are doubtful fits and often do not repeat.

Experiment: Cytotoxic Profiling in HEK 293 Cell Line of Diverse Libraries Using Quantitative High-Throughput Screening; also: nearly all actives have a fitted effect of over 60% in size
Conditions: HEK 293 viability, ATP luminescence (CellTiter-Glo), 48-72 h; activity change, negative = cytotoxicity: at 115 µM (top of the series) unless noted; series mostly up to 115 µM
Source text: Cell-based phenotypic screening is a commonly used approach to discover biological pathways, novel drug targets, chemical probes and high-quality hit-to-lead molecules. Many hits identified from high-throughput screening campaign are ruled out through a series of follow-up potency, selectivity/specificity, and cytotoxicity assays. Prioritization of molecules with little or no cytotoxicity for a more in-depth downstream evaluation influence the future direction of projects, so cytotoxicity profiling of the screening libraries at early stage is essential for increasing the likelihood of candidate success. In this study, we analyzed results from a cell-based cytotoxicity screening campaign, comprising nearly 10,000 compounds in NCATS annotated libraries, and over 100,000 compounds in a diversity library, evaluated in four normal cell lines (HEK 293, NIH 3T3, CRL-7250 and HaCat) and a cancer cell line (KB 3-1, a HeLa subline) with overall screening outcomes, hit rates, pan-activity and selectivity. For the annotated library, we also examined the primary targets and mechanistic pathways regularly associated with cell death. To our knowledge, this is the first study to use high-throughput screening to profile large libraries for cytotoxicity assessment in both normal and cancer cell lines. In summary, the results generated here constitutes a valuable resource for the scientific community and provides insight on identifying cytotoxic compounds with particular mechanisms of action, and prioritizing compounds with suitable cytotoxicity profile for further evaluation.
HEK 293 cells were seeded into white 1536-well plates using a Multidrop Combi peristaltic dispenser (ThermoFisher, Waltham, MA) at a density of 250 cells/well in 5 uL of medium respectively. A pintool (Kalypsys) was used to transfer 23 nL of compound solution to the 1536-well assay plates. After 48 or 72 hr incubation at 37 degree Celsius, 5% CO2 and 95% humidity, 2.5 uL of CellTiter-Glo (Promega) was dispensed into each well using a dispenser (Aspect Automation, St. Paul, MN) with solenoid valves (Lee Valves, Westbrook CT). Plates were left at room temperature for 10 min before imaging the ATP-coupled luminescence using a ViewLux microplate imager (PerkinElmer, Waltham, MA).
% is scaled to controls: 0 for no effect and ±100 for the full control effect; potency is read from the fitted curve at half-maximal effect; tags tell the direction and shape of the fitted curve.

Row | Structure (SMILES) | outcome | activity change, negative = cytotoxicity | Potency
1 | O=C(C1CCN(c2nc3ncccc3o2)CC1)N1CCCC1 | inactive [at 172 µM] |  | 
2 | NC(=O)Cn1ccc2cc(OCC3CCN(C(=O)C4CC4)CC3)cnc21 |  | inactive: -19.9% [at 172 µM] | 
3 | Cc1ccc(-c2cc3c(ccn3C(C)C)c(C(=O)NCc3c(C)cc(C)[nH]c3=O)n2)cn1 |  |  | inconclusive: 70.8 µM [inhibitor, partial curve, poor fit]
4 | Cc1cc(=O)n(CC(=O)Nc2cc(Cl)ccc2C)c(-c2ccc(F)cc2)n1 |  |  | inconclusive: 89.1 µM [inhibitor, single point]
5 | c1ccc(CCN2CCNc3cc(-c4cn[nH]c4)ncc3C2)cc1 |  |  | inconclusive: 100 µM [inhibitor, partial curve]
6 | Cc1oc(C(O)c2cccc(O)c2)nc1C(=O)NCc1ccccc1 (stereo unspecified) |  |  | inconclusive: 89.1 µM [inhibitor, partial curve, poor fit]
7 | CC(NC(=O)C1CN(C2CCCC2)C(=O)N1)c1ccc(F)cc1 (stereo unspecified) |  | inactive: -21.6% [at 172 µM] | 
8 | COc1ccc(C(=O)N[C@@H]2CCC[C@@H]2C(=O)NCc2ccc3c(c2)OCO3)cc1 | inactive |  | 
9 | CC1=C[C@@H](CNS(C)(=O)=O)[C@H](C(C)C)C[C@H]1Cc1nnc(-c2ccccc2F)o1 |  |  | inconclusive: 100 µM [inhibitor, partial curve, poor fit]
10 | COc1nc(-c2ccc(OC)c3ncccc23)ncc1F |  | inactive: -15.7% | 
11 | CCCNC(=O)N1CCC2(CC1)CN(Cc1ccc(OC)cc1)C2=O |  | inactive: -15.3% | 
12 | COc1ccc(NC(=O)c2ccc3c(c2)N(C)C2CCCCN2C3=O)cc1 (stereo unspecified) |  |  | inconclusive: 56.2 µM [inhibitor, partial curve, poor fit]
13 | CCN(Cc1cnn(CC)c1)C(=O)c1ccc2c(c1)C(O)CCCCCN2C (stereo unspecified) |  |  | inconclusive: 44.7 µM [inhibitor, partial curve, poor fit]
14 | CSc1ccc(CNC(=O)C2(c3ccc(NS(C)(=O)=O)cc3)CCCCC2)cc1 |  |  | inconclusive: 79.4 µM [inhibitor, single point]
15 | Cc1noc2c(NCc3cccnc3)cc(-c3cccc(C(F)(F)F)c3)nc12 |  |  | active: 100 µM
16 | Cc1cc(N2CCC(c3[nH]ncc3Cc3ccccc3)CC2)nc(N)n1 |  |  | inconclusive: 44.7 µM [inhibitor, partial curve, poor fit]
17 | Cc1ccccc1OCC(=O)c1ccc2c(c1)N(CC(=O)NCc1ccco1)C(=O)CO2 |  |  | inconclusive: 50.1 µM [inhibitor, partial curve, poor fit]
18 | COc1ccc(Nc2ccnc(N3CCCC3C(=O)NCc3ccc(C(F)(F)F)cc3)n2)cc1 (stereo unspecified) |  |  | inconclusive: 56.2 µM [inhibitor, partial curve, poor fit]
19 | COc1ccc(F)cc1-c1cccc(C(=O)NCCN[S+](=O)([O-])c2ccccc2)c1 |  |  | inconclusive: 50.1 µM [inhibitor, partial curve, poor fit]
20 | Cc1cc(C(=O)NC(C)c2cnc(N3CCCCCCC3)nc2C)n[nH]1 (stereo unspecified) |  |  | inconclusive: 39.8 µM [inhibitor, full curve, poor fit]
21 | Cc1c(CC(=O)NC(C)(C)CO)c2c(n1Cc1ccccc1F)CCCC2=O |  |  | inconclusive: 100 µM [inhibitor, single point]
22 | CC1(C)CC1(C(=O)N1CCc2c(nc(N)[nH]c2=O)C1)c1cccs1 (stereo unspecified) |  | inactive: -13.7% | 

Row | Structure (SMILES) | outcome | activity change, negative = cytotoxicity | Potency
23 | O=C(NCCc1ccc(F)cc1)C1CCN(c2nccc(Nc3ccccc3F)n2)CC1 |  |  | active: 28.2 µM
24 | O=C(Cc1cccc(Cl)c1)N1CCC2(CN[S+](=O)([O-])c3cccnc3O2)C1 (stereo unspecified) |  | inactive: 4.07% | 
25 | O=C1NCc2ccccc2CC12CCN(Cc1ccc([N+](=O)[O-])cc1)C2 (stereo unspecified) |  |  | inconclusive: 50.1 µM [inhibitor, partial curve, poor fit]
26 | Cc1ccc(N2CC(c3noc(-c4ccccc4C)n3)CC2=O)cc1 (stereo unspecified) |  |  | inconclusive: 89.1 µM [inhibitor, partial curve, poor fit]
27 | Cc1cccn2c(CNC3CCC4(CCNCC4)CC3)cnc12 |  | inactive: -26.7% | 
28 | O=C(Cn1ccn2nc(-c3ccccc3)c(CO)c2c1=O)NCCCc1ccccc1 |  |  | inconclusive: 89.1 µM [inhibitor, single point]
29 | Cc1noc(C)c1CN1CCc2c(n(Cc3cccnc3)n(CCc3ccccc3)c2=O)C1 |  | inactive: -2.28% | 
30 | CC1=Nc2cc(C(=O)NCc3ccc(C)cc3)ccc2Sc2ccc(Cl)cc21 |  |  | active: 31.6 µM
31 | O=C(C1CCCN(c2nc3ncccc3o2)C1)N1CCCC1 (stereo unspecified) |  | inactive: -17.2% [at 172 µM] | 
32 | c1cncc(Nc2cc3c(cn2)CN(Cc2c[nH]c4ccccc24)CCN3)c1 |  |  | active: 112 µM
33 | OCc1n[nH]c2c1CN(Cc1cccc(OCC(O)CN3CCOCC3)c1)CC2 (stereo unspecified) |  |  | inconclusive: 56.2 µM [inhibitor, partial curve, poor fit]
34 | Cc1noc(-c2ccc(C(C)(C)C)cc2)c1C(=O)NCc1ccc(Cl)cc1 |  |  | inconclusive: 44.7 µM [inhibitor, partial curve, poor fit]
35 | CC(C)C[C@@H]1N[C@H](C(=O)N2CCOCC2)Cc2cn(CC3CC3)c3cccc1c23 |  |  | active: 89.1 µM
36 | COc1ccc(CNC2(Cc3cc(COc4ccccc4)on3)COC2)cc1 |  |  | inconclusive: 100 µM [inhibitor, partial curve]
37 | Cc1ccc(-c2ccccc2CN)c(C)c1 |  |  | active: 112 µM
38 | CCCCCC(=O)Nc1nc2c(s1)C[C@@H]1[C@](C)(CO)[C@H](O)CC[C@@]1(C)[C@@H]2CC(=O)NC1CCCCC1 |  | inactive: -27.9% | 
39 | CC1=Nc2cc(C(=O)NCCCN(C)C)ccc2Sc2ccc(F)cc21 |  |  | active: 50.1 µM
40 | O=C(NC1CCCCC1)O[C@@H]1CO[C@H]2[C@@H]1OC[C@@H]2NC(=O)c1ccccc1 |  |  | inconclusive: 79.4 µM [inhibitor, partial curve]
41 | CCC(=O)C(=O)N1CCC2(CCCN(Cc3ccc(C(C)C)cc3)C2=O)C1 (stereo unspecified) |  |  | inconclusive: 56.2 µM [inhibitor, partial curve, poor fit]
42 | COCCCNC(=O)N1CCCC(c2nc(-c3cccnc3)no2)CCNC(=O)CC1 (stereo unspecified) |  | inactive: -14.5% | 
43 | COc1ccccc1CC(=O)NC1CCN(c2cnn(CC3CC3)c(=O)c2)CC1 |  | inactive: 3.82% | 
44 | Cc1nn2c(c1-c1cccnc1N1CCOCC1)N(C(=O)c1ccc(Oc3ccccc3)cc1)CCC2 |  |  | inconclusive: 79.4 µM [inhibitor, partial curve, poor fit]

Row | Structure (SMILES) | outcome | activity change, negative = cytotoxicity | Potency
45 | Fc1ccc(Cc2noc(-c3nc(-c4ccncc4)no3)n2)cc1 |  |  | inconclusive: 50.1 µM [inhibitor, partial curve, poor fit]
46 | Cc1cc(=O)n(CC(=O)Nc2ccc(C)c(C)c2)c(N2CCc3ccccc3C2)n1 |  |  | inconclusive: 28.2 µM [inhibitor, full curve]
47 | CN(Cc1cc(-c2ccccc2)n[nH]1)C(=O)c1cn(Cc2ccc(F)cc2Cl)nn1 |  |  | inconclusive: 28.2 µM [inhibitor, full curve, poor fit]
48 | O=C1NC2(CCCN(C(=O)Cc3ccccc3)C2)COc2ccccc21 (stereo unspecified) |  |  | inconclusive: 44.7 µM [inhibitor, partial curve]
49 | O=C(NC1CCCN(c2cc(-c3ccc(F)cc3)[nH]n2)C1)c1cccnc1 (stereo unspecified) |  |  | inconclusive: 44.7 µM [inhibitor, partial curve, poor fit]
50 | C#CCNC(=O)c1nc(-c2ccc(F)cc2)c2ccccn12 |  |  | inconclusive: 20 µM [inhibitor, full curve, poor fit]
51 | COc1ccc(OC)c(NC(=O)Cn2c(-c3cccc(Cl)c3)nc(C)c(CCO)c2=O)c1 |  |  | inconclusive: 25.1 µM [inhibitor, full curve, poor fit]
52 | COCCc1nncn1C1CCN(S(=O)(=O)c2ccc(C(F)(F)F)cc2)CC1 |  | inactive: -10.7% | 
53 | O=C(Nc1ccc(Cl)cc1)NC1CCN(C(=O)c2ccc(-c3cccs3)cc2)CC1 |  |  | inconclusive: 31.6 µM [inhibitor, partial curve, poor fit]
54 | CN(C)c1nc2c(c(=O)[nH]1)CCN(Cc1ccc(F)c(Br)c1)CC2 |  | inactive: 0.387% | 
55 | COCCn1c(=O)c(C(=O)N2CCN(C(=O)C3CCCC3)CC2)nc2cccnc21 | inactive |  | 
56 | CCOCCCNC(=O)N1CCCCCC1c1nc(-c2ccncc2)no1 (stereo unspecified) |  |  | inconclusive: 100 µM [inhibitor, single point]
57 | Cc1ncoc1C(=O)N1CCCC1C(=O)Nc1cccc(-c2ccc(F)cc2)c1 (stereo unspecified) |  |  | inconclusive: 39.8 µM [inhibitor, single point]
58 | Cc1ccc(NC(=O)N2CCC[C@H]2c2nc(-c3ccc(F)cc3)n[nH]2)cc1C |  |  | inconclusive: 20 µM [inhibitor, partial curve, poor fit]
59 | Cc1ccc(CCN2CCCC23Cc2ccccc2CNC3=O)cc1 (stereo unspecified) |  |  | inconclusive: 89.1 µM [inhibitor, partial curve, poor fit]
60 | O=C(NC1CCN(c2cc(C(F)(F)F)ncn2)CC1)c1ccccc1Cl |  |  | inconclusive: 22.4 µM [inhibitor, full curve]
61 | CCOc1ccccc1C1NC(=O)N(CC(=O)Nc2ccccc2)C2=C1C(=O)OC2 (stereo unspecified) |  | inactive: -11.5% | 
62 | O=C(NCC1CC1)C1CCCN1C(=O)c1cccc(-c2ccccn2)c1 (stereo unspecified) |  | inactive: 0.81% | 
63 | O=C(NC1CCCC1)C1c2ccccc2C(=O)N(Cc2ccccc2)C12CCCC2 (stereo unspecified) |  |  | inconclusive: 39.8 µM [inhibitor, partial curve, poor fit]
64 | CNC(=O)c1cc(C2CC2)nc2c1c(C1CCCN(C(=O)c3ccccc3)C1)nn2C (stereo unspecified) |  |  | inconclusive: 79.4 µM [inhibitor, single point]
65 | O=[S+]([O-])(CCC(F)(F)F)N1CCN(Cc2ccccc2-c2cccnc2)CC1 |  |  | inconclusive: 35.5 µM [inhibitor, partial curve, poor fit]
66 | O=C(c1ccccc1F)N1CCC2(CC1)CCN(Cc1cccs1)c1ccccc1O2 |  |  | inconclusive: 50.1 µM [inhibitor, partial curve, poor fit]
